Assay results: the antibiotic and cytotoxicity screens of Wong et al. (2023)
Some of the results follow.

system: HSkMC (human skeletal muscle cells); test: cytotoxicity call (relative viability < 0.9); conditions: 10 µM

Structure (SMILES) | cytotoxicity call
Cc1noc(C)c1NC(=O)Nc1ccc2c(c1)CC(=O)N([C@H](C)CO)C[C@@H](C)[C@@H](CN(C)S(=O)(=O)c1cn(C)cn1)O2 | inactive
CCS(=O)(=O)N1CC[C@]2(CC1)CN(Cc1ccc3c(c1)OCO3)[C@H](CO)c1[nH]c3cc(ccc3c12)OC | inactive
CCS(=O)(=O)Nc1ccc2c(c1)C(=O)N(C)[C@@H]1CC[C@@H](CC(=O)NCc3ccccc3F)O[C@@H]1CO2 | inactive
CNC[C@H]1Oc2ccc(NC(=O)CCN3CCOCC3)cc2CC(=O)N([C@H](C)CO)C[C@@H]1C | inactive
C[C@@H]1CCCCO[C@H](CN(C)Cc2ccncc2)[C@@H](C)CN([C@H](C)CO)C(=O)c2cc(NC(=O)Cc3ccccc3)ccc2O1 | inactive
CO[C@H]1CN(C)C(=O)c2cc(NC(C)=O)ccc2OC[C@H](C)N(S(=O)(=O)c2cn(C)cn2)C[C@H]1C | inactive
COc1ccc(S(=O)(=O)N(C)C[C@@H]2OCCCC[C@@H](C)Oc3ccc(NC(=O)Nc4c(C)noc4C)cc3C(=O)N([C@@H](C)CO)C[C@H]2C)cc1 | inactive
CC(C)NC(=O)N(C)C[C@@H]1Oc2c(NS(=O)(=O)c3cn(C)cn3)cccc2C(=O)N([C@@H](C)CO)C[C@H]1C | inactive
CC(=O)OC(CC(=O)O)[N+](C)(C)C.[Cl-] (stereo not given) | inactive
C[C@@H]1CN([C@@H](C)CO)C(=O)c2cc(NC(=O)Nc3ccc(C(F)(F)F)cc3)ccc2O[C@@H](C)CCCCO[C@@H]1CN(C)Cc1ccc(C(=O)O)cc1 | inactive
CC(C)(C[C@H]1CN(S(=O)(=O)c2cccc(C(F)(F)F)c2)c2cc(-c3cc(F)cc(OC(F)F)c3)ccc2O1)C(=O)O | inactive
CCS(=O)(=O)N1CC[C@@H]2CO[C@H](CN3CCN(C)CC3)[C@@H]2C1 | inactive
CN1CCN(C(=O)C[C@H]2C=C[C@H](NS(=O)(=O)c3cccc(F)c3)[C@H](CO)O2)CC1 | inactive
C[C@@H]1CN([C@H](C)CO)C(=O)c2cc(N(C)C)ccc2O[C@@H](C)CCCCO[C@@H]1CN(C)S(=O)(=O)c1cn(C)cn1 | inactive
C[C@@H]1CCCn2cc(nn2)COCCNC1=O | inactive
C[C@H](CO)N1C[C@H](C)[C@H](CN(C)S(C)(=O)=O)Oc2c(NS(=O)(=O)c3cccs3)cccc2C1=O | inactive
C[C@@H]1CN([C@H](C)CO)C(=O)c2cccc(NC(=O)c3cnccn3)c2O[C@H]1CN(C)Cc1ccccc1 | inactive
C[C@@H]1CCCCO[C@H](CN(C)Cc2ccc(C(=O)O)cc2)[C@H](C)CN([C@@H](C)CO)C(=O)c2cc(NC(=O)Nc3ccc(C(F)(F)F)cc3)ccc2O1 | inactive
Cc1noc(C)c1NC(=O)N(C)C[C@H]1Oc2ccc(NS(=O)(=O)c3cccs3)cc2CC(=O)N([C@@H](C)CO)C[C@@H]1C | inactive
C[C@H]1CCCCO[C@H](CN(C)S(=O)(=O)c2ccc(Cl)cc2)[C@@H](C)CN([C@@H](C)CO)C(=O)c2cc(NC(=O)c3ccncc3)ccc2O1 | inactive
C[C@H](CO)N1C[C@H](C)[C@H](CN(C)Cc2ccc(C(=O)O)cc2)Oc2ccc(NS(C)(=O)=O)cc2CC1=O | inactive
CN1C(=O)c2cc(NC(=O)C3CCOCC3)ccc2OC[C@@H]2O[C@H](CC(=O)NCc3ccccc3F)CC[C@@H]21 | inactive
C[C@H](CO)N1C[C@H](C)[C@@H](CN(C)C(=O)c2ccc3c(c2)OCO3)Oc2ncc(C3=CCCC3)cc2C1=O | inactive
CCC(=O)Nc1ccc2c(c1)OC[C@H](C)N(C(=O)CN1CCOCC1)C[C@@H](C)[C@@H](OC)CN(C)C2=O | inactive
CN1CCN(C(=O)C[C@@H]2CC[C@H]3[C@@H](COc4ccc(NC(=O)c5cscn5)cc4C(=O)N3C)O2)CC1 | inactive
C[C@@H]1CN([C@@H](C)CO)C(=O)c2cc(NC(=O)Nc3ccc(C(F)(F)F)cc3)ccc2O[C@@H](C)CCCCO[C@H]1CN(C)Cc1ccc(Cl)c(Cl)c1 | inactive
C[C@@H]1CN([C@H](C)CO)C(=O)c2cc(NC(=O)C3CCCCC3)ccc2O[C@@H]1CN(C)Cc1ccc(-c2ccccc2)cc1 | inactive
N=C(N)NCCC[C@H](N)C(=O)NCC(=O)N[C@@H](CC(=O)O)C(=O)N[C@@H](CO)C(=O)O | inactive
Cc1ccc(S(=O)(=O)Nc2ccc3c(c2)C(=O)N([C@@H](C)CO)C[C@@H](C)[C@@H](CN(C)C(=O)Nc2ccc(C(F)(F)F)cc2)O3)cc1 | inactive
C[C@@H]1CCCCO[C@@H](CN(C)Cc2ccc(C(F)(F)F)cc2)[C@H](C)CN([C@H](C)CO)C(=O)c2cc(NS(C)(=O)=O)ccc2O1 | inactive
